Assay results published in paper PMC7706265.
These are yes or no findings as the source states them, for the method shown. In cells and extracts the contact can be indirect. Some binding calls cover weakened binding; strength is not graded here. Tags and fused reporters may be left off the sequences shown.

Columns and labels:
[1] = target: T1, 3xFLAG-tagged ATF7IP dFNIII mutant (transiently expressed in HEK293T cells) (mouse) (UniProt Q7TT18); experiment: co-IP; HEK293T cells transiently co-transfected with 3xFLAG-ATF7IP (WT or dFNIII) and V5-tagged proteins; precipitated with anti-FLAG M2 affinity gel, 4 °C; western blot; which lysis buffer was used is not said
T1 sequence: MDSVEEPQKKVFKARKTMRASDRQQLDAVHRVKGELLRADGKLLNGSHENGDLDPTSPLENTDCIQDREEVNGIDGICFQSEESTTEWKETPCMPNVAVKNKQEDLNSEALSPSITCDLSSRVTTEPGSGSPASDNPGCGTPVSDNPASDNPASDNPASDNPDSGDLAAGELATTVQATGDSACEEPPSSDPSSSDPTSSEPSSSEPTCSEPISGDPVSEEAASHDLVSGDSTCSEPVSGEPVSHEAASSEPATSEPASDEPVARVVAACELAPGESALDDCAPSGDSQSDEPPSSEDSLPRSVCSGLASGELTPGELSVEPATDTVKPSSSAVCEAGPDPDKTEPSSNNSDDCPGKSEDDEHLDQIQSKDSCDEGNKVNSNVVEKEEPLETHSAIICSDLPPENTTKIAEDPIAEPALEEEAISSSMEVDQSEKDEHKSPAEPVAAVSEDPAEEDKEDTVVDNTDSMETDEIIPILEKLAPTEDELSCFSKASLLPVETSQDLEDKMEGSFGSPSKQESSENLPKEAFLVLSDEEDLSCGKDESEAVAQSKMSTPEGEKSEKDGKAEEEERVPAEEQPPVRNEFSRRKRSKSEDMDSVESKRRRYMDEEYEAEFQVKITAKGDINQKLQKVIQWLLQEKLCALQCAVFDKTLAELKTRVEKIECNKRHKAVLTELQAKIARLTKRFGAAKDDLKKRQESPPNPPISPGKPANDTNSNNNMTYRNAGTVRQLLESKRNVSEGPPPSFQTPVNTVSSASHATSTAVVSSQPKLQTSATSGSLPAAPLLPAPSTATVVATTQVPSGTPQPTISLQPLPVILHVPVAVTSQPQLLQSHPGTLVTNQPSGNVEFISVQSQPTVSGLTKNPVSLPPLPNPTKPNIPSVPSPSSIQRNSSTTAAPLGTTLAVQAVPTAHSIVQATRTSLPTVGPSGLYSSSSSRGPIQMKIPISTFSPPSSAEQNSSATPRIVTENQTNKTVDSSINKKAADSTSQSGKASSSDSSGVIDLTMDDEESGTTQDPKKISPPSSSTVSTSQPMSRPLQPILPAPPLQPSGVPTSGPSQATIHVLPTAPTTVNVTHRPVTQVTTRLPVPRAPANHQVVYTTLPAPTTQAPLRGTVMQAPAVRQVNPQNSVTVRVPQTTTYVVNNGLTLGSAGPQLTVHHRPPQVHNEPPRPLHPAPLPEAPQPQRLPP

[2] = target: T2, 3xFLAG-tagged ATF7IP WT (transiently expressed in HEK293T cells) (mouse) (UniProt Q7TT18); experiment: as above
T2 sequence: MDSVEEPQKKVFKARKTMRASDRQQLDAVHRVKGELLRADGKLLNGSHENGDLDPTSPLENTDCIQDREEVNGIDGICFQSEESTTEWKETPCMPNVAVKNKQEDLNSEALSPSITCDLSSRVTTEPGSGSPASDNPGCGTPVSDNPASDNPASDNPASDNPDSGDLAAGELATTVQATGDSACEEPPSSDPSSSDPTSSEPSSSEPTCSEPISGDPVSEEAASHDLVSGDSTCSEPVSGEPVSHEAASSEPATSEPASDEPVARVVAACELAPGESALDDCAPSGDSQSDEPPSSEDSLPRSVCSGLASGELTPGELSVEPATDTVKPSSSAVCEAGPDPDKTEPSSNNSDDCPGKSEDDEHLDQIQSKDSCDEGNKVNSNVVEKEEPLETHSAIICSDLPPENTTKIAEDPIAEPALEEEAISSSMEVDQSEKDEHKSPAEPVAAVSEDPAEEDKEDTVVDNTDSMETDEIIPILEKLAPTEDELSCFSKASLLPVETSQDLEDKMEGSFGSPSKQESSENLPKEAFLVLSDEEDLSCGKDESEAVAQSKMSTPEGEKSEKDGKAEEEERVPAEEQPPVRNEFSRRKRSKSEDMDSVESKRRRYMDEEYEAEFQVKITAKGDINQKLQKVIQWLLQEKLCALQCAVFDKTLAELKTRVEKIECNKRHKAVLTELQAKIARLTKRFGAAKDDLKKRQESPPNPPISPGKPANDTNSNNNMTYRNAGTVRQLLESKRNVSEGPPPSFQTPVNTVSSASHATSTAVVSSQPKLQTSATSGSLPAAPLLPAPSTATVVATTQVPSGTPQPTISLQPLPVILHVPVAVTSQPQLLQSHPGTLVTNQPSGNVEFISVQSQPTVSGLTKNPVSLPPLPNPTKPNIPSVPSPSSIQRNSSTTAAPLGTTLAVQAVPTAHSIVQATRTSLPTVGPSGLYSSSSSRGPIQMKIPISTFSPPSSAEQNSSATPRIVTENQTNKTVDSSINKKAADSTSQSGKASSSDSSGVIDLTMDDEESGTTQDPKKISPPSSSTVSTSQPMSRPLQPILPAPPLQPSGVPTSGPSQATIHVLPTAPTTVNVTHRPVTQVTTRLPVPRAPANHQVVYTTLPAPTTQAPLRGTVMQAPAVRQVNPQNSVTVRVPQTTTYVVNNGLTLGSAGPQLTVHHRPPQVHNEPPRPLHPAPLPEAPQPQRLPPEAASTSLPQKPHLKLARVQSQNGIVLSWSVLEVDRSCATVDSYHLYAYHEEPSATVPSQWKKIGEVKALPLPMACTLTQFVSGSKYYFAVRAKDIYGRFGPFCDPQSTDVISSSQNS

B1: V5-tagged mouse ZFP518A (protein, UniProt B2RRF6 1-1478)
chain: MPFEQTQLFCDEKPTILKKLDTRNEIADTIRSVSTSKISETSFQYVLKDVNICLPKINIPNEILMKHEVEKYRLLFQSKPQTARKSISVKTVSCAEECVLLCKSERAEDETVNMSAKILNFSCSKCQDSTQYSPNDLQKHFEMWHHGELPSFPCEMCSFSASDFQIFKQHRKTHRNTFVKCDICNSERSYTLLDLTKHFTSKHCVNGNFQCEECRFFTQDVGTFVQHIHRHKEVHYKCGKCHHLCFTKGELQKHLRVHSGTLPFTCHYCSYGAIHKDQLIRHVITLHKEHLYAKEKLERDQYDKRVAKTTTTGLKLILKRYKIGPTKTFWKRKTITSGNDESIGKNAQAFNIVSKTQTKSEDQSQEQVNGEKGEKQHCENGDKPVESESEKATVLSTGQYNKADEGASTTSSSVLSAVQGPTVLLVRNNKITIPANYSAKFMGFKMVDGRQHIVIKLLPANKQILPSPVLQSNTEKNSTANLSPQAVANTGFATGLTTKVNDTDFVKAAPPACSSPVLARKVISEKEAAFISEKNNTLQMVDDSKSLSSLPTTSTTSVRVTTKVEARDNVDLWENDSPQSHPDASDTSISSPDKVSLTPKPNAYSSGDMHNYCINYVNSELPAESSNSFEFSNQGSLPFHNYSKVNNKRRRFSRATLCENLQKESPNKTVTQQSTSDSDTASPLLRKESSNSDNLFASINPLNGTLKIKTEIEEPYNLEETQNFNEQSLFTNENQNLLNVTEEPKWNDIPSAGSPMMPRITSVFSLQSEQASEFLTPEVNQLLQDTLKPKSDIKEDSNNIPSKNLPFDCDQTLKKSEEVVIKSSKDFQMQDDIPVPSASVGVNVPANDLNSKCNGQEKQGLSVLQDVRDSEVTTKIPNIITLLKTQSDAIITQQLVKDKLRTTTQNSGPVYVQNPFLTSEQKNPVFVQTPKGFIIPLHVANKPGLHVFSGRPVPLVNTRSVPATLLVNKKPGMLLATNNGKPESVPTVKTENVHSYGTVTKEPCKTPFLKAEHNNSCLTPGLCSSIGNCVNMKTCSENTLPLKGSYIIKTSVNSSVKAVPNILPEQQGPKMNILDTVKQQNENLPKASLYTLMPDGKQAVFFKCVMPNNTKLLKPKLVQSSTYQHIQPKRPAGAPQKILVKIFNPVLSMSAFNNLSASNSASSFQKEIVPSKPTVHGEQKEPETSRNALPVLVHGLMPANETVHSSTTACPGSSEEPVYISERSETRVLRGKANCAVERNFNKRKTCKNKFAKIKTRIDQDSETAFVSRNRSCKRKYIDNYQEPPRKKSTLNRKGKERASAEDVQEAFGFSRPRLPKDSSRTLRLFPFSSKQLVKCPRRNQPVVVLNHPDADTPEVERVMKTIAKFNGHVLKVSLSQTTINALLKPVSNTSETTYNDFSKRQKMLKPVNSVKERFVLKLTLKKTSKNNYQIVKTTSEDVLKSQFNCWFCGRVFDNQDVWAGHGQRHLVEATRDWNMLE
For B1, the binding [1] was “no binding” and the binding [2] was “binds”.
